# Assay results published in the supplement of paper PMC11417369.
# Some of the results follow.
# Test system: PfSIP2 AP2 domain 1 (GST-tagged)
# Assay: gcPBM binding intensity (ln(normalized median fluorescence intensity)); higher = stronger DNA binding
# Summary of the method: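 Binding intensity is the highest Masliner-normalised natural-log median intensity over replicate spots in either probe orientation. To obtain it, GST-tagged P. falciparum DNA-binding domains made in E. coli were incubated for 1 h on an Agilent 4 × 180k array of primer-extended double-stranded 36-bp intergenic genomic probes plus negative controls. Detection used Alexa488 anti-GST antibody with scanning at 488 nm.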
row,Sequence,gcPBM binding intensity (ln)
1,TATGTCAATTTTCATACATGCGCATAATCTTTATTT [TGCATGCA_site807],6.9
2,ATAAATAAGATACGTACACACATATACAAAATATAC [CACACA_site3661],7.3
3,TATAAAACCCTACTGTTTCTTCTTTATTGATATATT [TGCATGCA_negctrl_site285],6.63
4,AAAGTTTTTATACATACACACCTATAAATTAAGTGC [CACACA_site7198],6.99
5,GAAAGAATAAAATAAACATGCAAATAAAACATAAAA [TGCATGCA_site471],7.2
6,AATTGTAAATTGGGCACTTATAAAAATGAACAAATA [CACACA_negctrl_site1583],7.06
7,TCATAAAGAACAAAGTGTACCTATATATTACATACA [XGTACX_site7595],6.9
8,AGGTAGTTCTGTATCACACACATATATATATATATA [CACACA_site2214],9.51
9,ACTCTTAAAATGTATTGTACATAATTTTTACAAGGG [XGTACX_site6611],7.1
10,CAAAAACGGAAGTGGTGTACCGATATTATATAAACA [XGTACX_site4962],6.89
11,GGAGAATAGTGGAAAACACACACGTTTGAGATATGG [CACACA_site1168],6.8
12,TTTTTTTTTTTTACCTGTACATGTCAGCAAACTTTT [XGTACX_site1171],7.07
13,AACATTATAAGACACACACACACATATATATATATA [CACACA_site8259],9.25
14,TTTCCATTATGATATAGTACATAAATATATGTAATA [XGTACX_site6992],7.11
15,TTGTGTGTATGTATACATATATATATTGAGACGAAT [TGCATGCA_negctrl_site382],7.34
16,AAAAAAAATATATAAACACACATATTTATATACTCA [CACACA_site4984],6.75
17,ACATATAATAAAAAATGTACACACATAAGAAAATTT [XGTACX_site6153],7.12
18,ACTATAAATATATAAATATATATATATATATATATA [GTGCAC_negctrl_site65],9.73
19,ATTTATAATCAGGGTTGTACACTTATAGAATTTTTA [XGTACX_site4175],6.9
20,AATCTTCATACCAACACATGCACAAAAGAAATAAAA [TGCATGCA_site563],7.94
21,CATAAGAAAATAAAAACATGCACATAAGAAATATAC [TGCATGCA_site842],7.97
22,ATATAAATATATGGAAGTACACAAAAAAATTAAAAA [XGTACX_site8624],6.93

row,Sequence,gcPBM binding intensity (ln)
1,TATATTTATACATATTGTACATTTTATACTTTTACA [XGTACX_site3884],7.09
2,ATTATTAAAAAGATGTAAATAAATGAATATATGCTT [CACACA_negctrl_site539],6.85
3,TTCTATATATTTTAATGTACATATATGATTATTCTT [XGTACX_site8294],7.12
4,TATTAAGAATTTACATGTACTTGTTAAATAAGAAAA [XGTACX_site4466],7.09
5,ATATAGTATAATAAAAGTACATTTTGATTTTTTCTC [XGTACX_site1797],6.93
6,GTCGCATTTTATACAAGTACACATGAATTATACAAC [XGTACX_site2200],7.68
7,TAAATAATATCTATCACACACGCATATATACATATA [CACACA_site2622],6.9
8,TTCAAAAAAATGTATACACACATAAGTATAATATAA [CACACA_site3758],6.91
9,TGTTTATGTATCAATTGTACAAAAAAAAAAAAAAAA [XGTACX_site1590],7.21
10,GATTTTTTTTTTTTTTCACACACTAATAATATTATC [CACACA_site464],7.07
11,CTTATGTGCATACCTACACACTTACAGATATATATA [CACACA_site5622],7.92
12,TTCAAATATTTTATTTGTACATAAAAAAGAAAGTTA [XGTACX_site8287],6.95
13,TAGGAAGAATTACTGTGTACTAAAATATTAAAAAGT [XGTACX_site4909],7.32
14,ATAAATGAAAAAAAGCGTACATATAAAAAAATATAT [XGTACX_site5063],7.3
15,ACTTACCCATTTATTACACACATAAAGGAAAATTTT [CACACA_site4873],7.77
16,TGTAAATAATATAATAGTACGCATATTTTTATTGAA [XGTACX_site284],7.02
17,ATATATATATATATATGTACACATATATGTGTTTGT [XGTACX_site62],9.19
18,TTAATAAACCTTAGATGTACAGTTATATATAAAATA [XGTACX_site6681],6.91
19,TGAACTCACGAGCACACACACACATATATATATATA [CACACA_site8248],9.18
20,ATACAATAAAGGTGTACACATATATGATGCAAGATG [CACACA_site5897],7.46
21,ATATATATTTTTTAATGTACTTATATTTTTATAATA [XGTACX_site2103],7.25
22,AATTAAACTCACACCACACACAAAAAAAAAAAAAAA [CACACA_site693],7.05

row,Sequence,gcPBM binding intensity (ln)
1,AGCAATTGTGTTTTCACACATAAATATATTCCTCAC [CACACA_site5021],6.92
2,GGTCATATTTTTTGCACACAAAAAAAAATATAAAAT [CACACA_site3381],7.76
3,GTATGTATGTATGTATGTACTTATGTAGTCTTAGTT [XGTACX_site1710],8.15
4,AGTGTAGGTATATAAACACACATACAGATATATAAT [CACACA_site4900],6.95
5,TATTCAGGTCCAATGGTGCAATATATTTTTGTAATA [GTGCAC_site9607],10.5
6,TAAAAAATAAAATGGACACACACGTTCAAATTTAGA [CACACA_site2083],6.82
7,TTTAAAAATGCTACATGTACAAAATAAAATATAATA [XGTACX_site2905],7.26
8,ATATATATATATAAAAGTACATGCTTATATATATAT [XGTACX_site3786],9.34
9,AAGTTTATCACAGCCACGCACACATAATATATGTAT [CACACA_site3670],6.98
10,ATTTTTTTTATTCAATGTACTTTTTTTTATATATAT [XGTACX_site4978],7.43
11,CACCCACTAATAAACACACACATATATATATATATA [CACACA_site389],9.51
12,TATATAAACATACATACACACATACAATAAGTAAAA [CACACA_site5118],7.19
13,TACAAAATATATATGACACACATAAAAAAAAGTATA [CACACA_site1373],6.96
14,AATAAAATGAGATGTTGTACAGTTTTGATATATGCA [XGTACX_site3052],7.11
15,ACCTAAGAACTATTTACACACATATACAAAATATAT [CACACA_site2459],7.31
16,ATTGTTCTATGATTTGTACACACTTTTTTTTAAAAT [CACACA_site2825],7.55
17,CATATAAAAATATGCACACACAGGAATACAAACATA [CACACA_site684],7.5
18,AATAAAAAACTACAATATACAAAATTATTAAATCAA [GTGCAC_negctrl_site703],6.71
19,AAACGTACATAATACACACACATGTATCCATATAAA [CACACA_site5173],7.21
20,TATATTGAATGCAAAAGTACATTTGTGTAAATTTAT [XGTACX_site7611],6.96
21,TTTTTGTATTCTACCTTAACAATCTTAAAGATTTTT [CACACA_negctrl_site1157],6.97
22,TGATGGTTACGTTTATGTACACATTACAGTTAGTAT [XGTACX_site998],6.86

row,Sequence,gcPBM binding intensity (ln)
1,TTTTTTTTTTTAAAATGTACACGTAATTACATATAT [XGTACX_site752],6.96
2,ACTACATTATTGCATTGTACTTTTTTTTTTTTTTTA [XGTACX_site4605],7.33
3,TTAAAAATTATATAAGTGCATTAATATTTAGAACAA [GTGCAC_site9773],8.39
4,AAAATATATTAAGGCACACACATACATATATATATA [CACACA_site3723],9.08
5,GAGTTAATATTTAAAAGTACAAGATGAATGTAAAAA [XGTACX_site5810],7.01
6,TTAAAAATATATGAATGTACATATATTTATATATAT [XGTACX_site77],7.34
7,TACTTACCAAAATACACACACACACCCAATATATAA [CACACA_site1871],7.27
8,TTTTTTTTATTAGTGTGTACGCATTTATTTATACAT [XGTACX_site1599],7.86
9,TTTAAATTATGAAATTGTACATATAAAAATATTTTA [XGTACX_site4796],6.89
10,TATATATTATTTAAAACACACAAAAAAAAAAATTAT [CACACA_site89],6.93
11,TAAAATATAATAAAATGTACACGCATGCAATAGAAT [XGTACX_site7434],7.28
12,GCTTCTTAGTATACTTTATAAAATATATATTAAATA [XGTACX_negctrl_site57],7.39
13,ATATCGGGTGCATTAACACACATTTATTTGAATAAA [CACACA_site2350],11.7
14,TTTATAAATATATATACACACACATATATATTATAT [CACACA_site8099],7.09
15,ATATATCATAATAGAGGTACACATATTATATATATA [XGTACX_site782],7.91
16,ATATTAAATATAATTTGTACGCATTTTTTTTTTTTT [XGTACX_site1910],7.62
17,AATTATAATTAATAGAGTACTGAATATATATATATA [XGTACX_site8683],9.1
18,TTCCCTTTTTTTATTTGTACTTATCTTTTAAATAAT [XGTACX_site2497],7.23
19,AGCATTTTTCATTTTGCACACATGTTTTATGTGTAT [CACACA_site3454],7.11
20,AAAAAAAAAAAAAAGACACACATATATATATATATA [CACACA_site633],9.11
21,AATATTACAAAATATTGTCCGTACAAATTTTTAATA [XGTACX_site8129],6.86
22,GATGATAAAATATGTACACACAGTTTATACATTTTG [CACACA_site4055],6.88
